# According to PubChem BioAssay AID1671193 (National Center for Advancing Translational Sciences (NCATS), 2021):
# Values joined by “and” are separate entries in the source; they are usually repeats but may differ in a detail not shown here. Equal entries are not always repeated. Hit rate of the full screen: of about 150,000 compounds, about 180 (0.12%) were called active. Inconclusive means that the source gave no clear call. Such entries were picked first, then a sample of the others. Calls come from the whole dose curve; as a rule, active = well fitted cell-killing curve with a large enough effect; inconclusive = small, poorly fitted or top-dose-only effect, or effect the other way; inactive = flat fitted curve, though single readings scatter. Potencies of inconclusive entries are doubtful fits and often do not repeat.
# Experiment: GF-AFC viability counterscreen for inhibitors of alpha-synuclein gene (SNCA) expression; note: nearly all actives have a fitted effect of over 30% in size;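 for activity change, negative = cytotoxicity: 0% = DMSO-treated cells and -100% = medium-only wells without cells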
# Conditions: HEK-293-SNCA-luc viability, GF-AFC fluorescence, 24 h; activity change, negative = cytotoxicity: at 57.1 µM (top of the series) unless noted
# Procedure, shortened: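 Cytotoxicity counterscreen: after 24 h compound treatment of genome-edited SNCA-luciferase HEK-293 cells, live-cell protease substrate GF-AFC read by fluorescence after 30 min; activity scaled between DMSO (0%) and medium-only (-100%), curves Hill-fitted.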
# Potency is the fitted concentration of half-maximal effect; tags give direction and shape of the fitted curve.
SMILES,Potency,"activity change, negative = cytotoxicity"
COc1ccccc1NC(=O)Cn1ccn2nc(-c3ccc(F)cc3)c(CO)c2c1=O,inactive,–
CCCOCCCNC(=O)c1c(C)noc1-c1ccccc1OC,"inconclusive: 35.5 µM [cytotoxic, single point]",–
CCc1ccc([S+](=O)([O-])c2nnn3c2nc(N2CCC(F)CC2)c2ccccc23)cc1,inactive,–
O=C1Cc2cc(CCN3CCN(c4nsc5ccccc45)CC3)c(Cl)cc2N1,"inconclusive: 18.9 µM [cytotoxic, partial curve, poor fit]",–
O=C(C1CCOC1)N1CC(Oc2cccc(-c3nc(-c4ccccc4)no3)c2)C1 (stereo unspecified),inactive,–
COc1ccc(C(=O)NC2CCN(Cc3ccc(-c4ccccc4OC)cc3)C2)cc1 (stereo unspecified),–,inactive: -4.01% [at 12.5 µM]
CCCNC(=O)[C@@H]1Cc2cn(Cc3cccnc3)c3cccc(c23)[C@H](CC(C)C)N1,"inconclusive: 31.6 µM [cytotoxic, single point]",–
CCn1c(=N)n(CCOc2ccc(Br)cc2)c2ccccc21,"inconclusive: 35.5 µM [cytotoxic, single point]",–
COc1ccc(C(=O)NC2CCc3n[nH]c(=O)n3CC2)c(OC)n1 (stereo unspecified),"inconclusive: 11.2 µM [cytotoxic, partial curve, poor fit]",–
COc1cccc([S+](=O)([O-])N2CCn3cc(C(=O)NCc4ccc(Cl)nc4)nc3C2)c1,inactive,–
Cc1cn2nc(C(=O)Nc3ccccc3C)cc2c(N(C)Cc2ccccc2)n1,inactive,–
CCCCN(CC)C(=O)CSc1c2c(nc3ccc(Cl)cc13)CCCC2,"inconclusive: 31.6 µM [cytotoxic, single point]",–
C/C=C(\C)C(=O)O[C@H]1C=CC(=O)O[C@H]1/C=C/[C@H](O)[C@@H](C)O,inactive,–
Cc1cccc(NC(=O)Cn2cc(C(=O)c3ccco3)c3ccccc32)c1,"inconclusive: 20 µM [cytotoxic, partial curve, poor fit]",–
CCOc1cc(C(=O)N2CCC(N3CCN(C)CC3)CC2)ccc1Nc1ncc2c(n1)N(C1CCCC1)c1ccccc1C(=O)N2C,"inconclusive: 21.2 µM [cytotoxic, partial curve, poor fit]",–
Fc1ccc(-c2ccnc3nc(C4CCCO4)nn23)cc1 (stereo unspecified),inactive,–
CCCCn1c(=O)c(C(=O)N2CCN(C(=O)N(C)C)CC2)nc2cccnc21,"inconclusive: 20 µM [cytotoxic, single point]",–
C[C@@H]1O[C@@H](O[C@H]2CC[C@@]3(C)[C@H](CC[C@@H]4[C@H]3C[C@@H](O)[C@]3(C)[C@@H](C5=CC(=O)OC5)CC[C@]43O)C2)C[C@H](O)[C@@H]1O[C@H]1C[C@H](O)[C@H](O[C@H]2C[C@H](O)[C@@H](O)[C@@H](C)O2)[C@H](C)O1 (stereo in doubt),"inconclusive: 0.312 µM [cytotoxic, full curve, poor fit]",–
O=C(Cc1ccc(-c2ccc(OCCN3CCOCC3)cc2)cn1)NCc1ccccc1,"inconclusive: 1.92 µM [cytotoxic, full curve, poor fit]",–
COc1ccc(NC(=O)Cn2c(=O)n(-c3cccc(C)c3)c(=O)c3c2cc(C)n3C)cc1,"inconclusive: 1.78 µM [cytotoxic, full curve, poor fit]",–
COc1cccc(C(=O)N[C@@H]2CN(c3ccccn3)C[C@H]2CN(C)C)c1,inactive,–

SMILES,Potency,"activity change, negative = cytotoxicity"
Cc1cc(C(=O)N[C@H]2[C@H](O)[C@H](O)C[C@@H]2c2ccc(N3CCOCC3)nc2)nn1C,inactive,–
COC(=O)Nc1ccc(-c2nc(N3CCOCC3)c3cnn(C4CCN(Cc5cccnc5)CC4)c3n2)cc1,"inconclusive: 121 nM [cytotoxic, full curve] and inconclusive: 1.34 µM [cytotoxic, full curve, poor fit]",–
COc1ccc(CNCCC(c2ccc3c(c2)OCO3)c2ccccc2OC)cc1 (stereo unspecified),"inconclusive: 39.8 µM [cytotoxic, single point]",–
CCN1CCN(Cc2ccc(NC(=O)c3ccc(C)c(Oc4ccnc5[nH]ccc45)c3)cc2C(F)(F)F)CC1,"inconclusive: 9.27 µM [cytotoxic, partial curve, poor fit]",–
COc1ccc(Cn2cc(C(=O)c3ccc(C)c(C)c3)c(=O)c3ccccc32)cc1,"inconclusive: 15.8 µM [cytotoxic, partial curve, poor fit]",–
COc1ccc(-c2nc(C3CC3)nc3c2CCN(Cc2ccc(C(F)(F)F)cc2)CC3)cc1,"inconclusive: 3.98 µM [cytotoxic, single point]",–
Nc1ncn([C@H]2C[C@H](O)[C@@H](CO)O2)c(=O)n1,"inconclusive: 42.9 µM [cytotoxic, partial curve, poor fit]",–
CCCCc1cc(C[C@H]2CNCC[C@H]2CC(=O)N2CCC(Cc3ccccc3)CC2)no1,"inconclusive: 31.6 µM [cytotoxic, single point]",–
COc1ccc(CN(C)Cc2cccn2C)cc1,"inconclusive: 7.94 µM [cytotoxic, full curve, poor fit]",–
CCC(=O)Nc1ccc(C)cc1-c1nc2ccccc2n(C(C)C(=O)Nc2ccccc2CC)c1=O (stereo unspecified),"inconclusive: 15.8 µM [cytotoxic, partial curve, poor fit]",–
Fc1ccc(-c2ccc3ncc(Nc4ccc(Cl)cn4)n3n2)cc1,inactive,–
O=C(CN1C(=O)NC(c2ccc(Cl)cc2)C2=C1COC2=O)Nc1ccc(F)c(Cl)c1 (stereo unspecified),"inconclusive: 25.1 µM [cytotoxic, single point]",–
O=C(COc1ccccc1)N1CC(CNc2cccnc2)C2(C1)CN(c1ccccc1)C2 (stereo unspecified),"inconclusive: 56.2 µM [cytotoxic, single point]",–
CC(=O)N1CCC2(CC1)CN(c1ccccn1)C2,"inconclusive: 7.08 µM [cytotoxic, single point]",–
COc1cccc(CN2CCOC3(CCN(Cc4ccc(Cl)cc4)CC3)C2=O)c1,"inconclusive: 15.8 µM [cytotoxic, partial curve, poor fit]",–
COc1ccc(Nc2ccnc(N3CCN(C(=O)c4ccc(C)cc4)CC3)n2)cc1,"inconclusive: 14.1 µM [cytotoxic, partial curve, poor fit]",–
CCOc1ccc(C(=O)N2CCCC3(C2)Nc2cccnc2NC3=NC2CCCC2)cc1 (stereo unspecified),"inconclusive: 7.94 µM [cytotoxic, full curve, poor fit]",–
O=C(O)Cn1ccc2cc(OCC3CCN(C(=O)Cc4ccccc4)CC3)cnc21,inactive,–
Cc1ccc(C(=O)N[C@H]2C[C@@H](c3nc(Cc4ccccc4)no3)N(C)C2)cc1,"inconclusive: 14.1 µM [cytotoxic, partial curve]",–
CN(C)c1ncc2nc(-c3ccc(Cl)cc3)c(=O)n(-c3ccccc3)c2n1,"inconclusive: 22.4 µM [rising, partial curve, poor fit]",–
Cc1nn(-c2ccccc2[N+](=O)[O-])c(C)c1[C@@H]1C=C[C@@H](NCc2ccc(C(C)C)cc2)C1,active: 20 µM,–

SMILES,Potency,"activity change, negative = cytotoxicity"
COc1ccc(-c2nc3cnc(OCc4ccccc4)nc3n(CCC#N)c2=O)cc1,"inconclusive: 39.8 µM [rising, single point]",–
NCc1cccc(-c2cccc(O)c2)c1,inactive,–
O=c1c(-c2cccs2)nc2cnc(Oc3cccc(Cl)c3)nc2n1C[C@H]1CCCO1,"inconclusive: 25.1 µM [rising, single point]",–
COC(=O)[C@@H]1Cc2c([nH]c3ccccc23)[C@H]2C[C@@H](NC3CC3)C[C@@H](c3ccc(F)cc3)N21,"inconclusive: 56.2 µM [cytotoxic, single point]",–
Cc1c(-c2ccccc2)c(=O)oc2c(CN3CCN(C)CC3)c(O)ccc12,"inconclusive: 28.2 µM [rising, partial curve]",–
CCCN1C(=O)Cc2ccccc2C1C(=O)N1CCN(c2ccccc2)CC1 (stereo unspecified),"inconclusive: 39.8 µM [cytotoxic, partial curve, poor fit]",–
CC(C)NC(=O)c1cccc2c1CCN2C(=O)C1CC1,inactive,–
CCOc1cc(CNCCSc2nnnn2C)ccc1OCc1ccc(Cl)cc1Cl,"inconclusive: 39.8 µM [cytotoxic, single point]",–
O=C(Nc1ccc2c(c1)CN(C(=O)c1cc(C3CC3)[nH]n1)CCO2)C1CC1,inactive,–
COCCNC(=O)c1ccc(OC)cc1OC1CCN(Cc2cccc3cccnc23)CC1,"inconclusive: 3.55 µM [cytotoxic, full curve, poor fit]",–
CCN(CC)C(=O)C(NC(=O)c1cccs1)C1CCN(C(=O)c2cccc(F)c2)CC1 (stereo unspecified),"inconclusive: 39.8 µM [cytotoxic, single point]",–
COCCNC(=O)c1cc(-c2ccc(OC)cc2)nc2c1c(C1CCCN1)nn2C (stereo unspecified),inactive,–
Cc1ccc2sc(N(CCCN(C)C)C(=O)c3ccco3)nc2c1C,"inconclusive: 39.8 µM [cytotoxic, single point]",–
Cc1cc(N2CCC3(CCCN(CC4CCC4)C3=O)C2)nc2ccccc12 (stereo unspecified),"inconclusive: 31.6 µM [cytotoxic, partial curve, poor fit]",–
CNc1nccc(N2CCC(CC(=O)NCCCN3CCC(C)CC3)CC2)n1,inactive,–
O=C(NCc1cccc(Cl)c1)c1cnc(N2CCCCC2)c2ccccc12,"inconclusive: 3.98 µM [cytotoxic, full curve, poor fit]",–
O=C(c1ccc(Cl)cc1)N1CC2(CCCN2CC2CC2)Cc2ccccc21 (stereo unspecified),inactive,–
O=C(CCc1nc2ccc(Cl)cc2[nH]1)NCCc1noc(-c2cccnc2)n1,–,inactive: -16.5% [at 12.5 µM]
Cc1cccn2c(=O)c3cc(C(=O)NC(C)C)n(C)c3nc12,"inconclusive: 28.2 µM [rising, single point]",–
